Assay results as given in patent publication US20240228656A1 (HARPOON THERAPEUTICS, published 2024).
Values belong to the binder of their own block, whether it stands above or below them.

Assays:
Experiment in all cases: binding assay with kinetics, affinity summary (instrument not stated)
[1] = biological target: T1, EpCAM H90 Mask27 L040 (EpCAM targeting ProTriTAC with H90)
T1 construct: trispecific prodrug: masked anti-albumin sdAb-L040-anti-CD3 scFv-anti-EpCAM sdAb H90-His6

[2] = biological target: T2, EpCAM H90.2 Mask27 L040 (EpCAM targeting ProTriTAC with H90.2)
T2 construct: trispecific prodrug; also called H90.2 ProTriTAC (L040)

[3] = biological target: T3, EpCAM H13 Mask27 L040 (EpCAM targeting ProTriTAC with H13)
T3 construct: trispecific prodrug: masked anti-albumin sdAb-cleavable linker L040-anti-CD3 scFv-anti-EpCAM sdAb H13-His6; also called H13 ProTriTAC (L040)
T3 sequence (chain, as listed by the source): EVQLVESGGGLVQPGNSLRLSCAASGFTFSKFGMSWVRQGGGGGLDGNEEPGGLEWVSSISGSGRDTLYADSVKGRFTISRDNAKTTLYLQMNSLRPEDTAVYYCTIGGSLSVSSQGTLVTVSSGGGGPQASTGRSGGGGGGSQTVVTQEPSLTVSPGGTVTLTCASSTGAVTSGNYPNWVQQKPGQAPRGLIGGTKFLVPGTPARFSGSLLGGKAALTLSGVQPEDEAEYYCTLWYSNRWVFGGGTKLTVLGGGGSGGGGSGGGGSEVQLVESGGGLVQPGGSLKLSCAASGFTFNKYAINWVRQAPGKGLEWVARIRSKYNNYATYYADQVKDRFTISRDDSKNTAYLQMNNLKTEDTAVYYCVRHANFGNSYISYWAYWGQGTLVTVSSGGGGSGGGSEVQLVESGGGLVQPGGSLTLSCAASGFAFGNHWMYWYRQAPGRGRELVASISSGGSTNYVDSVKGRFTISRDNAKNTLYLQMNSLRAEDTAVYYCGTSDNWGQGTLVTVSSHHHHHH

T1 sequence (chain, as listed by the source): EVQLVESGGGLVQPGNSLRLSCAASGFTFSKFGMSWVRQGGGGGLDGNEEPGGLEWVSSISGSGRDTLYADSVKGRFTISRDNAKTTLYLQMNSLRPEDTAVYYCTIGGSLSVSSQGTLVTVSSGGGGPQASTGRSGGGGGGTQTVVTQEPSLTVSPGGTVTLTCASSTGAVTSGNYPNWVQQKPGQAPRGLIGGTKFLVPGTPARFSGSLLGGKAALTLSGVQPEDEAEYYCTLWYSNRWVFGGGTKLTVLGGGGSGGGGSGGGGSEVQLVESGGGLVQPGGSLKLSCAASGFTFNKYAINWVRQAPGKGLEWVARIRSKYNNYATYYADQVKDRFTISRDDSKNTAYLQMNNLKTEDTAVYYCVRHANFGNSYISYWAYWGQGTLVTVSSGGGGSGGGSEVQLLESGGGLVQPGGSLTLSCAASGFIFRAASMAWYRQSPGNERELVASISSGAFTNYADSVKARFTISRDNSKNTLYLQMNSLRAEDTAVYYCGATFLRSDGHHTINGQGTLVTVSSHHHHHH
T2 sequence (chain, as listed by the source): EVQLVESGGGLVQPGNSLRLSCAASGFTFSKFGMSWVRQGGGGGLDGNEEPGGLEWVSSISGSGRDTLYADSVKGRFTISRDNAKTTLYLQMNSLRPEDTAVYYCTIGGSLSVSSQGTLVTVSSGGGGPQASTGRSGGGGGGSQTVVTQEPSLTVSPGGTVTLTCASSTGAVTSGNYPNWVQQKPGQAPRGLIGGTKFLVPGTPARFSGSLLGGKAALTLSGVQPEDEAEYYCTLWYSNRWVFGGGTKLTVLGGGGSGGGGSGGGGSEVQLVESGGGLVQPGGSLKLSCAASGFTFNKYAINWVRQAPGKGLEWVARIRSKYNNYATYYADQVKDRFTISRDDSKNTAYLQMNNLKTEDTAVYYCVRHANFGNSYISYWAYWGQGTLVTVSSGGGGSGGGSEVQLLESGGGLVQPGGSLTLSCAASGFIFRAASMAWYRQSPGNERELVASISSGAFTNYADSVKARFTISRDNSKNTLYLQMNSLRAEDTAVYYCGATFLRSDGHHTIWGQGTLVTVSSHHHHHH

Kd [1]: 230 pM | Kd [2]: 100 pM
B1: huEpCAM:Fc (Fc fusion)
chain: QEECVCENYKLAVNCFVNNNRQCQCTSVGAQNTVICSKLAAKCLVMKAEMNGSKLGRRAKPEGALQNNDGLYDPDCDESGLFKAKQCNGTSMCWCVNTAGVRRTDKDTEITCSERVRTYWIIIELKHKAREKPYDSKSLRTALQKEITTRYQLDPKFITSILYENNVITIDLVQNSSQKTQNDVDIADVAYYFEKDVKGESLFHSKKMDLTVNGEQLDLDPGQTLIYYVDEKAPEFSMQGLKDYKDDDDKGGGGS[human IgG1 Fc not written out]
modifications: biotinylated
notes: also called 1.7 Bn huEpCAM aa22-265 FLAG huIgG1 Fc; biotin-huEpCAM-Fc

Kd [3]: 137000 pM | Kd [1]: 420 pM | Kd [2]: 210 pM
B2: cyEpCAM:Fc (Fc fusion)
chain: QKECVCENYKLAVNCFLNDNGQCQCTSIGAQNTVLCSKLAAKCLVMKAEMNGSKLGRRAKPEGALQNNDGLYDPDCDESGLFKAKQCNGTSTCWCVNTAGVRRTDKDTEITCSERVRTYWIIIELKHKAREKPYDVQSLRTALEEAIKTRYQLDPKFITNILYEDNVITIDLVQNSSQKTQNDVDIADVAYYFEKDVKGESLFHSKKMDLRVNGEQLDLDPGQTLIYYVDEKAPEFSMQGLKDYKDDDDKGGGGS[human IgG1 Fc not written out]
modifications: biotinylated
notes: also called 1.9-Bn cyEpCAM aa24-265 FLAG huIgG1 Fc; biotin-cyEpCAM-Fc
